Laboratory results taken from the RNAGym collection of RNA variant scans (doi:10.1093/nar/gkz1192).
The source gives no read counts; variants with many changes may rest on few reads.

B1: CPEB3 Ribozyme (parent)
chain: UAACAGGGGGCCACAGCAGAAGCGUUCACGUCGCAGCCCCUGUCAGAUUCUGGUGAAUCUGCGAAUUCUGCUGUAUAUCUC

Variants of: B1
Assay: self-cleavage, relative activity (ratio to wild type); higher = more cleavage; in vitro, sequencing
In short: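 Relative activity was defined as the cleaved/total read fraction for a variant divided by the same fraction for the unmutated ribozyme. CPEB3 self-cleaving ribozyme libraries were made by rounds of error-prone PCR, barcoded, and transcribed in vitro with T7 RNA polymerase for 5 hours at 37°C, and cleavage ran through transcription plus a 15 min DNase I step before EDTA. Illumina sequencing of template-switched reverse transcripts gave the reads, and DNA sequencing mapped the barcodes. Averages come from three batches, using variants with at least 5 reads.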
With C11A A13U U69A the self-cleavage was 0.07.
In the case of C11A A15C A77C U80C, the self-cleavage is reported as 0.24.
In the case of C11A A15G A20G G53C U72C A75G, the self-cleavage is reported as 0.07.
C11A A15G A35G showed a self-cleavage of 0.25.
C11A A15G A75G gave a self-cleavage of 0.43.
In the case of C11A A15G C38G U43C C44A U72C, the self-cleavage is reported as 0.06.
Variant C11A A15G U49A U72C U80C has a self-cleavage of 0.09.
C11A A15G U54C U76A gave a self-cleavage of 0.42.
C11A A15U A20G U41A A47G U49C A64G gave a self-cleavage of 0.03.
In the case of C11A A15U A28U U51C U58C, the self-cleavage is reported as 0.07.
C11A A15U A65G gave a self-cleavage of 0.17.
For C11A A15U C32U A35G U43C, the self-cleavage was 0.05.
C11A A15U G24A A47G U48C A56G A75U showed a self-cleavage of 0.03.
For C11A A18G A64U, the self-cleavage was 0.21.
C11A A18G C27G showed a self-cleavage of 0.47.
Variant C11A A18G U26A U51C C62U has a self-cleavage of 0.04.
C11A A18G U72C U78C gave a self-cleavage of 0.33.
For C11A A20C U31A A65U U66C, the self-cleavage was 0.1.
Variant C11A A20G A28G has a self-cleavage of 0.3.
C11A A20G A35G A45G showed a self-cleavage of 0.18.
C11A A20G G33A gave a self-cleavage of 0.28.
In the case of C11A A20G U78A, the self-cleavage is reported as 0.05.
C11A A20U A28G A35U U72C U78C showed a self-cleavage of 0.03.
With C11A A21G A28G the self-cleavage was 0.06.
With C11A A21G A45G U76A the self-cleavage was 0.07.
With C11A A21G A57G the self-cleavage was 0.09.
Variant C11A A21G A57U has a self-cleavage of 0.06.
With C11A A21G C32A U43C U67A the self-cleavage was 0.04.
In the case of C11A A21G G24A A35U A56G, the self-cleavage is reported as 0.04.
Work on C11A A21G U41A A57G yielded a self-cleavage of 0.18.
C11A A21G U66C U72C gave a self-cleavage of 0.5.
C11A A21U A47G gave a self-cleavage of 0.3.
In the case of C11A A28G C40U A45G A64U, the self-cleavage is reported as 0.05.
In the case of C11A A28G C79U, the self-cleavage is reported as 0.35.
Work on C11A A28U A45U yielded a self-cleavage of 0.11.
Work on C11A A28U U31C U69A yielded a self-cleavage of 0.06.
C11A A35G A57C U78C gave a self-cleavage of 0.41.
C11A A35G C40A U49C U69C gave a self-cleavage of 0.07.
C11A A45G U58C showed a self-cleavage of 0.06.
Work on C11A A45G U78C yielded a self-cleavage of 0.29.
With C11A A56G U80C the self-cleavage was 0.38.
With C11A A56U U72C the self-cleavage was 0.29.
Work on C11A C12U C23A U54A A77U yielded a self-cleavage of 0.33.
In the case of C11A C14A A64U U69C, the self-cleavage is reported as 0.09.
Variant C11A C14U U26C U41G A77C has a self-cleavage of 0.06.
With C11A C17G A45G U67A the self-cleavage was 0.04.
With C11A C17U A18U U25C U41A U60C U78C the self-cleavage was 0.06.
In the case of C11A C23A U31A A45U U66G U69C C79A, the self-cleavage is reported as 0.02.
C11A C23G A35G U49A U54C U78C gave a self-cleavage of 0.02.
With C11A C23U U72C U78C the self-cleavage was 0.03.
C11A C32U G42A U51A U54C U76A showed a self-cleavage of 0.03.
C11A C34A U78C showed a self-cleavage of 0.29.
Variant C11A C34U U51A U78C has a self-cleavage of 0.05.
With C11A C39G U72C the self-cleavage was 0.05.
Variant C11A G16C C32U A35G U43C G46C U54C has a self-cleavage of 0.03.
With C11A G16U G30A U66C A77U the self-cleavage was 0.05.
For C11A G30A A57C U67A, the self-cleavage was 0.04.
Variant C11A G30A U31C U69C has a self-cleavage of 0.21.
In the case of C11A G46U U48A U51A C62U, the self-cleavage is reported as 0.15.
In the case of C11A G63A U72C, the self-cleavage is reported as 0.47.
C11A U25A A35G A57G A65G U72C showed a self-cleavage of 0.05.
C11A U25C A28U G33U gave a self-cleavage of 0.07.
With C11A U25C A35G U66C the self-cleavage was 0.3.
Variant C11A U25C A56U U80A has a self-cleavage of 0.05.
For C11A U25C U60C A64G U67C, the self-cleavage was 0.06.
C11A U25G U74C A75G gave a self-cleavage of 0.25.
In the case of C11A U26A A45G U48A, the self-cleavage is reported as 0.03.
Variant C11A U26C A28U U51A A57G U72A has a self-cleavage of 0.03.
For C11A U26C C62U U76A, the self-cleavage was 0.05.
With C11A U26C U41C A47U the self-cleavage was 0.06.
C11A U26C U60C gave a self-cleavage of 0.04.
C11A U31A U60C gave a self-cleavage of 0.05.
In the case of C11A U41C U60G U66C, the self-cleavage is reported as 0.11.
In the case of C11A U41G U49C, the self-cleavage is reported as 0.07.
Variant C11A U43A A45G U78G U80C has a self-cleavage of 0.19.
C11A U43A U48C gave a self-cleavage of 0.32.
C11A U43C U48C A65G A75G showed a self-cleavage of 0.2.
C11A U49C G61U U72C showed a self-cleavage of 0.13.
Work on C11A U51C U76C yielded a self-cleavage of 0.4.
C11A U54C A65C U67C showed a self-cleavage of 0.08.
With C11A U60G C68U the self-cleavage was 0.08.
In the case of C11A U67C U69C, the self-cleavage is reported as 0.08.
C11G A13G A15U A20U A21U C40U U78C showed a self-cleavage of 0.06.
In the case of C11G A13G A18U A28G U31C U54C U80C, the self-cleavage is reported as 0.
